From the supplement of paper PMC8728848
The other results are listed elsewhere or left out.

What was measured:
Assay in all cases: glycan array binding signal (z-score within array); higher = stronger binding
Conditions in all cases: glycan notation: IUPAC condensed, linker removed
[1] = target: Gal(b1-4)GlcNAc(b1-3)Gal(b1-4)GlcNAc(b1-3)Gal(b1-4)GlcNAc(b1-3)Gal(b1-4)GlcNAc(b1-3)Gal(b1-4)GlcNAc(b1-2)Man(a1-3)[Gal(b1-4)GlcNAc(b1-3)Gal(b1-4)GlcNAc(b1-3)Gal(b1-4)GlcNAc(b1-3)Gal(b1-4)GlcNAc(b1-3)Gal(b1-4)GlcNAc(b1-2)Man(a1-6)]Man(b1-4)GlcNAc(b1-4)[Fuc(a1-6)]GlcNAc
Procedure, shortened: (§1)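 Glycan array binding is given as a within-array Z-score, which can be read as non-binding when negative. The arrays, 3228 of them, came from the Consortium for Functional Glycomics database and were retained only where the protein sequence was available. Z-scores were averaged across arrays of the same protein sequence at different concentrations or buffers and across linkers.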

[2] = target: Gal(b1-4)GlcNAc(b1-3)Gal(b1-4)GlcNAc(b1-3)Gal(b1-4)GlcNAc(b1-3)Gal(b1-4)GlcNAc(b1-3)Gal(b1-4)GlcNAc(b1-2)[Gal(b1-4)GlcNAc(b1-3)Gal(b1-4)GlcNAc(b1-3)Gal(b1-4)GlcNAc(b1-3)Gal(b1-4)GlcNAc(b1-3)Gal(b1-4)GlcNAc(b1-6)]Man(a1-6)[Gal(b1-4)GlcNAc(b1-3)Gal(b1-4)GlcNAc(b1-3)Gal(b1-4)GlcNAc(b1-3)Gal(b1-4)GlcNAc(b1-3)Gal(b1-4)GlcNAc(b1-2)Man(a1-3)]Man(b1-4)GlcNAc(b1-4)[Fuc(a1-6)]GlcNAc
Procedure, shortened: as §1

[3] = target: Gal(b1-4)GlcNAc(b1-3)Gal(b1-4)GlcNAc(b1-3)Gal(b1-4)GlcNAc(b1-3)Gal(b1-4)GlcNAc(b1-3)Gal(b1-4)GlcNAc(b1-3)Gal(b1-4)GlcNAc(b1-2)Man(a1-3)[Gal(b1-4)GlcNAc(b1-3)Gal(b1-4)GlcNAc(b1-3)Gal(b1-4)GlcNAc(b1-3)Gal(b1-4)GlcNAc(b1-3)Gal(b1-4)GlcNAc(b1-3)Gal(b1-4)GlcNAc(b1-2)Man(a1-6)]Man(b1-4)GlcNAc(b1-4)GlcNAc
Procedure, shortened: as §1

[4] = target: Gal(b1-4)GlcNAc(b1-3)Gal(b1-4)GlcNAc(b1-3)GalNAc
Procedure, shortened: as §1

[5] = target: Gal(b1-4)GlcNAc(b1-3)Gal(b1-4)GlcNAc(b1-3)[Gal(b1-4)GlcNAc(b1-3)Gal(b1-4)GlcNAc(b1-6)]GalNAc
Procedure, shortened: as §1

[6] = target: Gal(b1-4)GlcNAc(b1-3)Gal(b1-4)GlcNAc(b1-6)[Gal(b1-3)]GalNAc
Procedure, shortened: as §1

[7] = target: Gal(b1-4)GlcNAc(b1-3)Gal(b1-4)[Fuc(a1-3)]GlcNAc(b1-3)Gal(b1-4)[Fuc(a1-3)]GlcNAc
Procedure, shortened: as §1

[8] = target: Gal(b1-4)GlcNAc(b1-3)GalNAc
Procedure, shortened: as §1

[9] = target: Gal(b1-4)GlcNAc(b1-3)[Fuc(a1-3)GlcNAc(b1-6)]Gal(b1-4)Glc
Procedure, shortened: as §1

[10] = target: Gal(b1-4)GlcNAc(b1-3)[Gal(b1-4)GlcNAc(b1-6)]Gal(b1-4)GlcNAc
Procedure, shortened: as §1

[11] = target: Gal(b1-4)GlcNAc(b1-3)[Gal(b1-4)GlcNAc(b1-6)]GalNAc
Procedure, shortened: as §1

[12] = target: Gal(b1-4)GlcNAc(b1-3)[GlcNAc(b1-6)]Gal(b1-4)GlcNAc
Procedure, shortened: as §1

[13] = target: Gal(b1-4)GlcNAc(b1-6)Gal(b1-4)GlcNAc
Procedure, shortened: as §1

[14] = target: Gal(b1-4)GlcNAc(b1-6)Gal(b1-4)GlcNAc(b1-6)GalNAc
Procedure, shortened: as §1

[15] = target: Gal(b1-4)GlcNAc(b1-6)GalNAc
Procedure, shortened: as §1

[16] = target: Gal(b1-4)GlcNAc(b1-6)[Gal(b1-3)]GalNAc
Procedure, shortened: as §1

[17] = target: Gal(b1-4)GlcNAc(b1-6)[Gal(b1-4)GlcNAc(b1-3)]GalNAc
Procedure, shortened: as §1

Gal(b1-4)GlcNAc6P = target: Gal(b1-4)GlcNAc6P
Procedure, shortened: as §1

Gal(b1-6)Gal = target: Gal(b1-6)Gal
Procedure, shortened: as §1

Gal3S(b1-3)GalNAc = target: Gal3S(b1-3)GalNAc
Procedure, shortened: as §1

Gal3S(b1-3)GlcNAc = target: Gal3S(b1-3)GlcNAc
Procedure, shortened: as §1

[18] = target: Gal3S(b1-3)[Fuc(a1-4)]GlcNAc
Procedure, shortened: as §1

Gal3S(b1-4)Glc = target: Gal3S(b1-4)Glc
Procedure, shortened: as §1

Gal3S(b1-4)Glc6S = target: Gal3S(b1-4)Glc6S
Procedure, shortened: as §1

Gal3S(b1-4)GlcNAc = target: Gal3S(b1-4)GlcNAc
Procedure, shortened: as §1

Gal3S(b1-4)GlcNAc6S = target: Gal3S(b1-4)GlcNAc6S
Procedure, shortened: as §1

[19] = target: Gal3S(b1-4)[Fuc(a1-3)]Glc
Procedure, shortened: as §1

[20] = target: Gal3S(b1-4)[Fuc(a1-3)]Glc6S
Procedure, shortened: as §1

[21] = target: Gal3S(b1-4)[Fuc(a1-3)]GlcNAc
Procedure, shortened: as §1

[22] = target: Gal3S(b1-4)[Fuc(a1-3)]GlcNAc6S
Procedure, shortened: as §1

Gal3S4S(b1-4)GlcNAc = target: Gal3S4S(b1-4)GlcNAc
Procedure, shortened: as §1

Gal3S6S(b1-4)GlcNAc = target: Gal3S6S(b1-4)GlcNAc
Procedure, shortened: as §1

Gal3S6S(b1-4)GlcNAc6S = target: Gal3S6S(b1-4)GlcNAc6S
Procedure, shortened: as §1

Gal4S(b1-4)GlcNAc = target: Gal4S(b1-4)GlcNAc
Procedure, shortened: as §1

Gal4S6S(b1-4)GlcNAc = target: Gal4S6S(b1-4)GlcNAc
Procedure, shortened: as §1

Gal6P(b1-4)GlcNAc = target: Gal6P(b1-4)GlcNAc
Procedure, shortened: as §1

Gal6S(b1-3)GlcNAc = target: Gal6S(b1-3)GlcNAc
Procedure, shortened: as §1

B1: Gal 8 (Homo sapiens) (protein)
chain: MLSLNNLQNIIYNPVIPYVGTIPDQLDPGTLIVICGHVPSDADRFQVDLQNGSSVKPRADVAFHFNPRFKRAGCIVCNTLINEKWGREEITYDTPFKREKSFEIVIMVLKDKFQVAVNGKHTLLYGHRIGPEKIDTLGIYGKVNIHSIGFSFSSDLQSTQASSLELTEISRENVPKSGTPQLQTVSPSWDLQGHGSETFCSVLWTRVFLEIAFCRPIGLTVASFQSLPFAARLNTPMGPGRTVVVKGEVNANAKSFNVDLLAGKSKDIALHLNPRLNIKAFVRNSFLQESWGEEERNITSFPFSPGMYFEMIIYCDVREFKVAVNGVHSLEYKHRFKELSSIDTLEINGDIHLLEVRSW
- glycan array binding signal (z-score) [1]: 2.93
- glycan array binding signal (z-score) [2]: 5.3
- glycan array binding signal (z-score) [3]: 5.33
- glycan array binding signal (z-score) [4]: -0.13
- glycan array binding signal (z-score) [5]: -0.115
- glycan array binding signal (z-score) [6]: 0.136
- glycan array binding signal (z-score) [7]: -0.355
- glycan array binding signal (z-score) [8]: -0.367
- glycan array binding signal (z-score) [9]: -0.355
- glycan array binding signal (z-score) [10]: -0.358
- glycan array binding signal (z-score) [11]: -0.685
- glycan array binding signal (z-score) [12]: -0.298
- glycan array binding signal (z-score) [13]: -0.338
- glycan array binding signal (z-score) [14]: -0.374
- glycan array binding signal (z-score) [15]: -0.375
- glycan array binding signal (z-score) [16]: -0.305
- glycan array binding signal (z-score) [17]: -0.356
- glycan array binding signal (z-score) (Gal(b1-4)GlcNAc6P): -0.356
- glycan array binding signal (z-score) (Gal(b1-6)Gal): -0.358
- glycan array binding signal (z-score) (Gal3S(b1-3)GalNAc): 0.661
- glycan array binding signal (z-score) (Gal3S(b1-3)GlcNAc): 0.409
- glycan array binding signal (z-score) [18]: -0.363
- glycan array binding signal (z-score) (Gal3S(b1-4)Glc): 0.757
- glycan array binding signal (z-score) (Gal3S(b1-4)Glc6S): 3.83
- glycan array binding signal (z-score) (Gal3S(b1-4)GlcNAc): -0.039
- glycan array binding signal (z-score) (Gal3S(b1-4)GlcNAc6S): 1.7
- glycan array binding signal (z-score) [19]: -0.351
- glycan array binding signal (z-score) [20]: -0.347
- glycan array binding signal (z-score) [21]: -0.357
- glycan array binding signal (z-score) [22]: -0.145
- glycan array binding signal (z-score) (Gal3S4S(b1-4)GlcNAc): 2.1
- glycan array binding signal (z-score) (Gal3S6S(b1-4)GlcNAc): -0.352
- glycan array binding signal (z-score) (Gal3S6S(b1-4)GlcNAc6S): 0.048
- glycan array binding signal (z-score) (Gal4S(b1-4)GlcNAc): -0.362
- glycan array binding signal (z-score) (Gal4S6S(b1-4)GlcNAc): -0.26
- glycan array binding signal (z-score) (Gal6P(b1-4)GlcNAc): -0.354
- glycan array binding signal (z-score) (Gal6S(b1-3)GlcNAc): -0.354
